In a collection of fitness landscapes (doi:10.1126/science.1257360):
This is one part of the list.

B1: PhoQ; a variant is named by its letters at X, in order, P23837 (parent)
chain: MKKLLRLFFPLSLRVRFLLATAAVVLVLSLAYGMVALIGYSVSFDKTTFRLLRGESNLFYTLAKWENNKLHVELPENIDKQSPTMTLIYDENGQLLWAQRDVPWLMKMIQPDWLKSNGFHEIEADVNDTSLLLSGDHSIQQQLQEVREDDDDAEMTHSVAVNVYPATSRMPKLTIVVVDTIPVELKSSYMVWSWFIYVLSANLLLVIPLLWVAAWWSLRPIEALAKEVRELEEHNRELLNPATTRELTSLVRNLNRLLKSERERYDKYRTTLTDLTHSLKTPLXXLQXXLRSLRSEKMSVSDAEPVMLEQISRISQQIGYYLHRASMRGGTLLSRELHPVAPLLDNLTSALNKVYQRKGVNISLDISPEISFVGEQNDFVEVMGNVLDNACKYCLEFVEISARQTDEHLYIVVEDDGPGIPLSKREVIFDRGQRVDTLRPGQGVGLAVAREITEQYEGKIVAGESMLGGARMEVIFGRQHSAPKDE

Variants of: B1
Assay: enrichment ratio after two sorts for PhoP signalling (ratio (wild type AVST 3.29)); higher = more functional
Conditions: with PhoP (E. coli)

Variant | enrichment ratio
LCME | ≤ 0.25
KGFN | ≤ 0.25
VFQF | ≤ 0.25
GAYL | ≤ 0.25
SYWM | ≤ 0.25
KNIL | ≤ 0.25
DKNW | ≤ 0.25
LHPG | ≤ 0.25
KSDA | ≤ 0.25
ATDF | ≤ 0.25
LQYC | ≤ 0.25
RCYS | ≤ 0.25
HKAH | ≤ 0.25
IAWM | ≤ 0.25
ELRN | ≤ 0.25
LVGC | ≤ 0.25
VTKL | ≤ 0.25
NVMA | ≤ 0.25
DVNL | ≤ 0.25
YSWR | ≤ 0.25
PANT | ≤ 0.25
TMVI | ≤ 0.25
FHQW | ≤ 0.25
GRMW | ≤ 0.25
VMAS | ≤ 0.25

Variant | enrichment ratio
KQAP | ≤ 0.25
MPET | ≤ 0.25
EESL | ≤ 0.25
AKWQ | ≤ 0.25
QISA | 1.69
TEEI | 4.63
VAKL | ≤ 0.25
LPTK | ≤ 0.25
LVLF | ≤ 0.25
MGNI | ≤ 0.25
DYFR | ≤ 0.25
VPFL | 0.292
CCPP | ≤ 0.25
PNDH | ≤ 0.25
HGVL | 0.811
ITGC | ≤ 0.25
TIML | 2.74
SYHE | ≤ 0.25
PARI | ≤ 0.25
PHVI | ≤ 0.25
YHHI | ≤ 0.25
PYMD | ≤ 0.25
GSNT | ≤ 0.25
VNKS | 0.263
LAIV | ≤ 0.25

Variant | enrichment ratio
MFPC | ≤ 0.25
MPEF | ≤ 0.25
KEQR | ≤ 0.25
GASK | ≤ 0.25
SIHF | ≤ 0.25
VDLF | ≤ 0.25
WSQH | ≤ 0.25
IQLW | ≤ 0.25
EWST | ≤ 0.25
MVGI | ≤ 0.25
AMAD | ≤ 0.25
PSWL | ≤ 0.25
VHLI | ≤ 0.25
RHLK | ≤ 0.25
DNCD | ≤ 0.25
QTTN | ≤ 0.25
ITNF | ≤ 0.25
VGRL | ≤ 0.25
FMWA | ≤ 0.25
RIWW | ≤ 0.25
MYCS | ≤ 0.25
NLLM | ≤ 0.25
DNPS | ≤ 0.25
EKQF | ≤ 0.25
VSMR | ≤ 0.25

Variant | enrichment ratio
WIYD | ≤ 0.25
LERH | ≤ 0.25
FPIA | ≤ 0.25
RGNQ | ≤ 0.25
DTRF | ≤ 0.25
AGTS | 7.67
KFVA | ≤ 0.25
YWKL | ≤ 0.25
TFHY | ≤ 0.25
LEYE | ≤ 0.25
PNIW | ≤ 0.25
FGYQ | ≤ 0.25
RLKH | ≤ 0.25
WTWC | ≤ 0.25
KMSY | ≤ 0.25
NQCE | ≤ 0.25
FTKD | ≤ 0.25
SICL | 11.3
DHLH | ≤ 0.25
RFDF | ≤ 0.25
QNSW | ≤ 0.25
NDPM | ≤ 0.25
